Test results from PubChem BioAssay (NCATS).
The shares of active, inactive and inconclusive entries below differ from those in the screen. For some of these results: No potency is given beside an inconclusive call; the fits are too rough. Activity calls are given as the source filed them. Unless noted, the call rests on the fitted dose curve; in most records, active means well fitted curve in the direction sought with a large enough effect; inconclusive means small, poorly fitted or top-dose-only effect, or another doubt; inactive means no such curve, though single readings can be large; an effect the other way counts as inactive or inconclusive.

Key:
[1] = molecular target: Mitogen-activated protein kinase 10 (Mus musculus) (UniProt Q61831); test: JNK3 AlphaScreen Assay (AID 530; active means well fitted curve in either direction with a large enough effect, not every such curve was filed as active; inconclusive means small, poorly fitted or top-dose-only effect, or another doubt;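 further: kinase came from lysate of stimulated human HepG2 cells; signal reports phosphorylation of biotinylated GST-cJun 1-79 at Ser73 with 10 µM ATP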; on activity change, negative = inhibition: on the % scale 0 is the no-effect control and ±100 the full control effect); details: JNK3 lysate, c-Jun phosphorylation; activity change, negative = inhibition: at 57.1 µM (top of the series)
How it was run: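 Activity was read by AlphaScreen after JNK3-containing HepG2 lysate (cytokine pre-activated) phosphorylated biotinylated GST-cJun with 10 uM ATP at room temperature. Phospho-Ser73 cJun antibody with Protein-A acceptor beads provided detection.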

[2] = molecular target: 3',5'-cyclic-AMP phosphodiesterase 4B (Homo sapiens) (UniProt Q07343); test: qHTS Assay for Inhibitors of PDE-IV (AID 607; active means well fitted activation curve with a large enough effect in the main read-out, with a control signal flat, not every such curve was filed as active; inconclusive means small, poorly fitted or top-dose-only effect, or effect the other way, or a change in a side signal; on activation (PDE inhibition): % of control where 0% means no effect); details: HEK293 ACTOne CNG channel cells, membrane potential fluorescence; activation (PDE inhibition): at 22.9 µM (top of the series)
How it was run: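 HEK293 ACTOne cells with CNG channel (1000/well), endogenous PDE4; membrane potential dye, compounds up to 22.9 uM final. Fluorescence Ex 535/Em 590; RO 20-1724 (100 uM final) as reference.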

[3] = qHTS Assay for Identification of Small Molecule Agonists for Hypoxia Response Element Signaling Pathway (AID 914; active means well fitted activation curve with a large enough effect in the signal ratio, with a control signal flat, not every such curve was filed as active; inconclusive means small, poorly fitted or top-dose-only effect, or effect the other way, or a change in a side signal; the % refers to the signal ratio; on activation: top concentration of the series differs between compounds; % of control where 0% means no effect); details: ME-180 (cervical carcinoma) HRE-bla reporter, beta-lactamase ratio, CoCl2, 17 h; activation: stronger effect = higher value
How it was run: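 HRE-bla ME-180 cells with beta-lactamase reporter under hypoxia response element, compounds with EC50 CoCl2 for 17 hours at 37 C. CCF4 substrate, 460nm/530nm emission ratio gave %Activity; AC50 from titration series.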

[4] = Primary qHTS for small molecule stabilizers of the endoplasmic reticulum resident proteome: Secreted ER Calcium Modulated Protein (SERCaMP) assay (AID 1508630); details: SH-SY5Y GLuc-SERCaMP secretion, thapsigargin, luminescence; activity change, negative = inhibition: at 38.4 µM (top of the series) unless noted; on activity change, negative = inhibition: on the % scale 0 is the no-effect control and ±100 the full control effect
How it was run: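 The SH-SY5Y reporter protocol was run at 3 concentrations up to 38.3 uM (primary) or 11 concentrations (follow-up): 16 h compound, 100 nM thapsigargin for 4 h, then extracellular luciferase luminescence.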

[5] = molecular target: Ubiquitin carboxyl-terminal hydrolase 1 (Homo sapiens) (UniProt O94782); test: Inhibitors of USP1/UAF1: Pilot qHTS (AID 504865);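 further: rhodamine fluorescence freed from ubiquitin-rhodamine substrate followed over time; nearly all actives have a fitted effect of over 35% in size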; on activity change, negative = inhibition: top concentration of the series differs between compounds; on the % scale 0 is the no-effect control and ±100 the full control effect
How it was run: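 Kinetic fluorescence assay: 1nM USP1/UAF1, 15 min compound preincubation, then 150nM Ub-Rho; 480/540 nm.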

[6] = molecular target: Cytochrome P450 2C9 (Homo sapiens) (UniProt P11712); test: qHTS Assay for Inhibitors and Substrates of Cytochrome P450 2C9 (AID 883); further: nearly all actives have a fitted effect of over 60% in size
How it was run: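 Human CYP2C9 (10nM) with Luciferin-H at 100uM (its KM) in 25mM KPO4; compound preincubated 10 min at 37C, then NADPH regeneration for 60 min at 37C. Luciferin read by luminescence after detection reagent; normalized to 57uM sulphaphenazole as full inhibition.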

[7] = molecular target: Cytochrome P450 3A4 (Homo sapiens) (UniProt P08684); test: qHTS Assay for Inhibitors and Substrates of Cytochrome P450 3A4 (AID 884); details: recombinant CYP3A4, Luciferin-PPXE luminescence; activity change, negative = inhibition: at 57.1 µM (top of the series); further: nearly all actives have a fitted effect of over 50% in size
How it was run: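 Luminescent readout of luciferin produced by CYP3A4 (20 nM) dealkylation of Luciferin-PPXE, 25 uM (its KM). NADPH-driven reaction ran 60 min at RT after 10 min compound preincubation; data scaled to 57 uM ketoconazole as 100% inhibition.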
Potency means the concentration at half of the fitted maximal effect; tags describe the fitted curve by direction and shape or compound fluorescence and quenching.

UniProt Q07343, sequence (Q07343 whole entry, looked up): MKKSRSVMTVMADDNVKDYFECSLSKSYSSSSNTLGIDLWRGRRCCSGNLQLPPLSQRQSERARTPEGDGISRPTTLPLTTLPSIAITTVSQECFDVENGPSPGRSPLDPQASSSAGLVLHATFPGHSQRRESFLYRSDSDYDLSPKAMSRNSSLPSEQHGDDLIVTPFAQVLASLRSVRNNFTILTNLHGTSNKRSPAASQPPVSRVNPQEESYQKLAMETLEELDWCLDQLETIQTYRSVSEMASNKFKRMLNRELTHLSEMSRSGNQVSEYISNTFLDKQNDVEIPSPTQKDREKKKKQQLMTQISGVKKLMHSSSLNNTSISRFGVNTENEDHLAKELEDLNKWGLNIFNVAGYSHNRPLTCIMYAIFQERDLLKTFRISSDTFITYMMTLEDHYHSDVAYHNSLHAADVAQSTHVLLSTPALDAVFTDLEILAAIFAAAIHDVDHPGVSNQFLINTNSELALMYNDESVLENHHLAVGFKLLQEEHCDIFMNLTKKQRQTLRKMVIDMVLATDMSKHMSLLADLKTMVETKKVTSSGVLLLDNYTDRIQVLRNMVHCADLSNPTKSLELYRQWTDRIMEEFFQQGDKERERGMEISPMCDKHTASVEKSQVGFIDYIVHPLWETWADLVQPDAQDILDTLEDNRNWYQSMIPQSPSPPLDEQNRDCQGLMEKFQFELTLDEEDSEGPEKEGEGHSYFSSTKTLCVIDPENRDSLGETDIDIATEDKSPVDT
UniProt O94782, sequence (O94782 whole entry, looked up): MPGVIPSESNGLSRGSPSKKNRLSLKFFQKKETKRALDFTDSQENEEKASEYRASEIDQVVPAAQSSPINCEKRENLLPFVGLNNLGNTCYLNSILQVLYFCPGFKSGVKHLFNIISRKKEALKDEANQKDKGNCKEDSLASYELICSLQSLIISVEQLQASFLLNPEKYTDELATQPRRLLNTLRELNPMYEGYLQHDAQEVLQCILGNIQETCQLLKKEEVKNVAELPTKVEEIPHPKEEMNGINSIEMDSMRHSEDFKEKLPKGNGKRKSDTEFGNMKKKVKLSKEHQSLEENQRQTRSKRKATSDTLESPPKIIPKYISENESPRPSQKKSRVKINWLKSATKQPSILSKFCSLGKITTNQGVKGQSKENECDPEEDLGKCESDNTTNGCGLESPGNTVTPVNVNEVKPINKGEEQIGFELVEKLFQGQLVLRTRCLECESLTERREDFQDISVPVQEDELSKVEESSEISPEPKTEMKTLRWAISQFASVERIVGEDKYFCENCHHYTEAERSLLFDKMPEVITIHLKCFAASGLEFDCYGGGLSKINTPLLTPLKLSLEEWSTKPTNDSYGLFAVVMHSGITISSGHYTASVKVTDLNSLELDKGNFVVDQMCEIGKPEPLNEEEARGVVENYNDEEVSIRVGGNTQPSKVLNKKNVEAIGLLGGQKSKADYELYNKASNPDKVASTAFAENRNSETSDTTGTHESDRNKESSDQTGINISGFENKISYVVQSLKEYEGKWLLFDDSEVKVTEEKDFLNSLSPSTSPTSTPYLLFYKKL
UniProt P11712, sequence (P11712 whole entry, looked up): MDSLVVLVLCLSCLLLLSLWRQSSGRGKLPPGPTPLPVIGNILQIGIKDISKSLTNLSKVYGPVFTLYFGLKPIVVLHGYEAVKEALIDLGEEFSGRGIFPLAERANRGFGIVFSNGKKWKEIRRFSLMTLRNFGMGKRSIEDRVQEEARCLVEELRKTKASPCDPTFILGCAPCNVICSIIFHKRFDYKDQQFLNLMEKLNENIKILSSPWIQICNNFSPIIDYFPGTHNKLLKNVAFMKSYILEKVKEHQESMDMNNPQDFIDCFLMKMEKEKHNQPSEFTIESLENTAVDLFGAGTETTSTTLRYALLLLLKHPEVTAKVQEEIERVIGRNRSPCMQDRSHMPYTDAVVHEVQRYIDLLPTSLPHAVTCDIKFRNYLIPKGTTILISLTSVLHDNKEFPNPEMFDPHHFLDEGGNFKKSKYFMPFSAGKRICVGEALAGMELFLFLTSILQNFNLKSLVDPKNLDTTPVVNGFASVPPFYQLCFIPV
UniProt P08684, sequence (P08684 whole entry, looked up): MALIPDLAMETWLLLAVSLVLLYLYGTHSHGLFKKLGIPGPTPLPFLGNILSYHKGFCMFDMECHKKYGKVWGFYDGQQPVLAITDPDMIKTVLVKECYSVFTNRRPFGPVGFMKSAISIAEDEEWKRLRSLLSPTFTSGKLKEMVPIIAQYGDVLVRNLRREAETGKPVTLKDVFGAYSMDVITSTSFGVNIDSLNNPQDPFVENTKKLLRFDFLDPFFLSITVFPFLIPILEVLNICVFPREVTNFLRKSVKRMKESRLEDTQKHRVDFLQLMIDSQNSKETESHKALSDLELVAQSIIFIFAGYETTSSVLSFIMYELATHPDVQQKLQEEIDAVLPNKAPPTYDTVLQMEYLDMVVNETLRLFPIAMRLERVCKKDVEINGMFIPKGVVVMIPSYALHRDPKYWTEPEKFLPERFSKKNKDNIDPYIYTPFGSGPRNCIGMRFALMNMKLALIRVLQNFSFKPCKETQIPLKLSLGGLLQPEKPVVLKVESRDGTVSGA

For COc1ccc(C(=O)N2CCC[C@@]3(CCN(c4cccc(-c5ccccc5)c4)C3)C2)cc1, the Potency [1] was inconclusive [inhibitor, partial curve], the Potency [2] was inconclusive [activator, partial curve, poor fit] and the Potency [3] was inconclusive [inhibitor, partial curve]. For the same molecule, the Potency [4] was “inactive”.

In the case of N=C(N)S/C=C\C(=O)O, the Potency [2] is reported as inconclusive [inhibitor, single point], the Potency [5] is reported as inconclusive [inhibitor, partial curve] and the Potency [4] is reported as “inactive”.

With COc1ccc2[nH]cc(CCNc3ncnc4ccc(-c5ccccc5C#N)cc34)c2c1 the Potency [2] was inconclusive [activator, single point], the Potency [6] was active: 0.316 µM and the Potency [5] was inconclusive [inhibitor, partial curve, poor fit]. For the same molecule, the Potency [4] was inconclusive [inhibitor, single point].

In the case of CN(C)C(=O)c1ccc(-c2nc(N(C)C)c3ccccc3n2)cc1, the Potency [3] is reported as inconclusive [inhibitor, single point], the Potency [5] is reported as “inactive” and the Potency [4] is reported as inconclusive [inhibitor, single point].

In the case of O=c1c(CCc2ccccc2)nc2cnc(N3CCOCC3)nc2n1C1CC1, the Potency [2] is reported as inconclusive [activator, single point], the activation [3] is reported as inconclusive: -24.9% and the Potency [5] is reported as “inactive”. For the same molecule, the Potency [4] was “inactive”.

For CCCCCN=c1ccn(Cc2ccccc2)c2ccccc12, the Potency [2] was inconclusive [rising, partial curve], the Potency [5] was inconclusive [inhibitor, partial curve] and the Potency [4] was inconclusive [inhibitor, single point].

With O=C(c1cnccn1)N1CCC2(CC1)CN(c1ccccc1)C2 the Potency [1] was inconclusive [activator, partial curve, poor fit] and the Potency [4] was “inactive”.

For COc1ccccc1-c1cncnc1NCc1cccc(C)c1, the Potency [2] was inconclusive [activator, partial curve], the Potency [5] was inconclusive [inhibitor, partial curve, poor fit] and the Potency [4] was inconclusive [inhibitor, single point].

In the case of COc1ccccc1CC(=N)N1C[C@@H]2C(=O)CCC(c3ccccc3)(c3ccccc3)[C@@H]2C1, the Potency [2] is reported as inconclusive [rising, partial curve, poor fit], the Potency [5] is reported as inconclusive [inhibitor, partial curve] and the Potency [4] is reported as inconclusive [inhibitor, partial curve, poor fit].

For COc1cccc(Cn2c(=O)c(CCc3ccccc3)nc3cnc(N(C)C)nc32)c1, the Potency [2] was inconclusive [activator, partial curve], the Potency [7] was inconclusive [inhibitor, full curve] and the Potency [5] was inconclusive [inhibitor, partial curve, poor fit]. For the same molecule, the Potency [4] was inconclusive [inhibitor, single point].

For CN(C)Cc1ccccc1-c1nccc(N(C)Cc2ccco2)n1, the Potency [1] was “inactive”, the Potency [2] was inconclusive [rising, partial curve] and the Potency [4] was “inactive”.

With COc1ncc2nc(CCc3ccccc3)c(=O)n(-c3ccccc3)c2n1 the Potency [2] was “inactive”, the Potency [5] was “inactive” and the Potency [4] was inconclusive [inhibitor, single point].

With COc1ccc2cccc(N3CCN(CCNC(=O)c4ccc(F)cc4)CC3)c2c1 the Potency [2] was inconclusive [activator, partial curve], the Potency [5] was inconclusive [inhibitor, partial curve] and the Potency [4] was inconclusive [inhibitor, single point].

With COc1ccccc1CNc1cc(-c2ccccc2C)ncn1 the Potency [2] was inconclusive [activator, single point], the Potency [5] was inconclusive [inhibitor, partial curve, poor fit] and the Potency [4] was “inactive”.

For Clc1cccc(C=NC=Nc2cccc(Cl)c2)c1, the Potency [1] was inconclusive [activator, full curve, poor fit], the Potency [2] was inconclusive [inhibitor, single point] and the Potency [4] was inconclusive [inhibitor, full curve].

With FC(F)(F)c1ccccc1-c1nc(NCc2cccnc2)c2ccccc2n1 the Potency [2] was inconclusive [activator, partial curve], the Potency [5] was active: 12.6 µM and the Potency [4] was inconclusive [inhibitor, single point].

For COc1ccc2[nH]cc(CCNc3nc(-c4ccoc4)nc4ccccc34)c2c1, the Potency [2] was inconclusive [activator, partial curve], the activation [3] was inactive: -13.1% and the Potency [5] was inconclusive [inhibitor, partial curve, poor fit]. For the same molecule, the Potency [4] was inconclusive [inhibitor, single point].
